Measurements published in PubChem BioAssay AID463173 (ICCB-Longwood Screening Facility, Harvard Medical School, 2010).
In all, about 52,000 compounds went through this assay and about 4,300 (8.3%) were called active. Cut-off read from the data, not from the text of the source: active = survival mostly below about 52% (no sharp cut-off); inactive = mostly above about 56%. This is one part of the list.

Test system: DeltatarO mutant
Assay: S. aureus survival, RN4220 and DeltatarO strains – OD600, teichoic acid synthesis inhibitors, primary screen (AID 463173)
Conditions: S. aureus RN4220 wild type/DeltatarO growth, OD600, 18 h, stronger effect = lower value, screened at 18.75 µg/mL (by protocol)

SMILES | survival
CCOc1ccccc1N(C)C(=O)NCc1noc2ccccc12 | inactive: 108%
CCOc1ccccc1NS(=O)(=O)c1ccc2oc(=O)c3ncn(C)c3c2c1 | inactive: 77%
O=C(N/N=C/c1ccc(O)cc1)Nc1cccc2nsnc12 | inactive: 92%
Cc1cccc(OCC(=O)Nc2ccc3c(c2)N(C)C(=O)c2ccccc2S3)c1 | inactive: 73%
CCCn1ccc2c(OCC(=O)Nc3ccc(F)cc3F)cccc2c1=O | inactive: 102%
Cc1cccc(NC(=O)CSc2nc3c([nH]c4ccccc43)c(=O)n2-c2ccc(F)cc2)c1C | inactive: 49%
Cc1ccc(C(=O)N/C(=C\c2cn(S(=O)(=O)N(C)C)c3ccccc23)C(=O)NCCCn2ccnc2)cc1 | inactive: 80%
COc1ccc(NC(=O)c2ccco2)cc1NC(=O)COc1ccccc1Cl | inactive: 71%
O=C(Cc1cccs1)NC1CCCCCC1 | inactive: 92%
COc1ccc(C(=O)N2CCC(C(=O)Nc3ccccc3Cl)CC2)cc1 | inactive: 78%
CCc1ccccc1NC(=O)c1cc(S(=O)(=O)NC2CCCC2)ccc1F | inactive: 89%
COC(=O)CSc1nc(N2CCOCC2)nc(N2CCOCC2)n1 | inactive: 104%
CCOc1ccc(NC(=O)CC2C(=O)N(c3cccc(C)c3)C(=O)N2Cc2ccco2)cc1 (stereo unspecified) | inactive: 83%
COc1ccc(-c2cc(C(F)(F)F)n3nc(C(=O)Nc4sc5c(c4C#N)CCC(C)C5)cc3n2)cc1OC (stereo unspecified) | inactive: 99%
O=C1CC(N2CCC(c3nc4ccccc4[nH]3)CC2)C(=O)N1 (stereo unspecified) | inactive: 84%
CCOC(=O)C1CCN(C(=O)c2cc3ccc4ccc(C)[nH]c4c3n2)CC1 | inactive: 67%
CCC(C)NC(=O)c1[nH]c2cc(OC)ccc2c1Sc1ccc(C)cc1 (stereo unspecified) | inactive: 82%
CC(CNC(=O)CN1C(=O)COc2ccc(S(=O)(=O)N3CCCCC3)cc21)c1ccccc1 (stereo unspecified) | inactive: 85%
CC(/C=C/c1ccco1)=N/NC(=O)Cc1cccs1 | inactive: 97%

SMILES | survival
Cc1ccc(-n2ncc(C(=O)NCCCN3CCc4ccccc4C3)c2C2CCN(C(=O)OC(C)(C)C)CC2)cc1C | inactive: 73%
Cc1ccccc1C(=O)Nc1ccc(C(=O)OCc2cc(=O)n3nc(C4CC4)sc3n2)cc1 | inactive: 79%
O=C(Nc1ccc(Cl)cc1)C1CCN(S(=O)(=O)c2ccc(Br)s2)CC1 | active: 47%
CN(CC(=O)NCc1ccccn1)S(=O)(=O)c1ccccc1 | inactive: 96%
CC1CN(C(=O)Nc2ccc(C(=O)NCCc3ccccc3Cl)cc2)c2ccccc2S1 (stereo unspecified) | inactive: 61%
CCC1CN(C(=O)N2CCC(C(=O)N(C)Cc3ccccc3)CC2)c2ccccc2O1 (stereo unspecified) | inactive: 72%
Cc1ccc(CNC(=O)c2cc(S(=O)(=O)N3CCCCC3)cn2C)cc1 | inactive: 69%
Cc1ccc2nc(CN3CCN(C(=O)Nc4cccc(C)c4C)CC3)oc2c1 | inactive: 83%
COc1ccc(NC(=O)CN2C(=O)CC(c3ccco3)Sc3ccccc32)cc1OC (stereo unspecified) | inactive: 83%
COC(=O)c1scc(-c2ccc(C)cc2)c1S(=O)(=O)Nc1c(C)cc(C)cc1C | inactive: 124%
Cc1nc2c(-c3ccccc3)c(C)[nH]n2c(=O)c1Cc1ccc(C(C)C)cc1 | active: 11%
CCS(=O)(=O)c1ncc(N(Cc2cccc(F)c2)Cc2ccco2)c(C(=O)Nc2ccccc2Cl)n1 | inactive: 64%
CCOC(=O)c1cccc(NC(=O)c2cnn(-c3ccccc3)c2-n2cccc2)c1 | inactive: 80%
O=C(CSCc1cc(=O)c2ccccc2[nH]1)Nc1cccc(C(F)(F)F)c1 | inactive: 123%
CC(=O)c1ccc(N2CCN(S(=O)(=O)c3ccc4[nH]c5c(c4c3)CCCCC5)CC2)cc1 | inactive: 91%
CC(=O)N1c2ccccc2C(=O)C1N1CCN(c2cc(Cl)ccc2C)CC1 (stereo unspecified) | inactive: 90%
CCC1CN(C(=O)Nc2ccccc2C(F)(F)F)c2ccccc2S1 (stereo unspecified) | inactive: 116%
O=C(CSc1nnnn1-c1ccc2c(c1)OCCO2)c1ccc2c(c1)OCCO2 | inactive: 68%
CCCCS(=O)CC(O)CSc1nc(-c2ccc(OC)cc2)cc(-c2ccccc2)c1C#N (stereo unspecified) | inactive: 51%

SMILES | survival
Cc1ccc(/C=C/c2onc(C)c2S(=O)(=O)N2CCC(C(=O)NCc3ccc(N(C)C)cc3)CC2)cc1 | inactive: 67%
COc1ccc(NC(=O)CN(c2ccc(C)cc2)S(=O)(=O)c2cccs2)cc1OC | inactive: 97%
CCC(Sc1nnc(-c2ccc(OC)cc2)c(-c2ccc(OC)cc2)n1)C(=O)Nc1cccc(OC)c1 (stereo unspecified) | inactive: 94%
Fc1ccccc1N1CCN(c2c3c(nc4nncn24)CCC3)CC1 | inactive: 81%
Cn1ncc2c(N3CCN(c4ccccc4Cl)CC3)ncnc21 | inactive: 122%
CCOc1ccccc1NC(=O)CCNS(=O)(=O)c1ccc2c(c1)CCN2C(=O)C1CC1 | inactive: 81%
Cc1cccc(C(=O)Nc2nnc(SCc3cc(=O)n4cccc(C)c4n3)s2)c1 | inactive: 79%
O=C(Cc1ccc(Cl)cc1)NCC(c1cccs1)S(=O)(=O)c1ccc(Cl)cc1 (stereo unspecified) | inactive: 85%
O=C(CSc1nnc(-c2ccccc2F)o1)N1CCc2ccccc21 | inactive: 100%
COc1ccc(C(=O)N/C(=C\c2cn(S(=O)(=O)N(C)C)c3ccccc23)C(=O)NCCCn2ccnc2)cc1 | inactive: 85%
CN(Cc1ccccc1)C(=O)C1CCN(Cc2cc3ccccc3n2Cc2ccccc2)CC1 | inactive: 79%
COc1ccccc1NC(=O)c1sc2nc(-c3cc4ccccc4oc3=O)[nH]c(=O)c2c1C | inactive: 106%
Cc1cc(C)cc(NC(=O)c2cccc(N3CCCS3(=O)=O)c2)c1 | inactive: 101%
O=C(CSc1n[nH]c(-c2ccccc2)n1)c1cccs1 | inactive: 81%
C=CCn1c(N2CCC(C(N)=O)CC2)nc2c1c(=O)n(C)c(=O)n2C | inactive: 94%
O=C(Nc1ccc2oc(-c3cccc4c(Br)cccc34)nc2c1)c1ccc(F)cc1 | inactive: 80%
Cc1ccc(C(C(=O)NC2CCCCC2)N(C(=O)C2COc3ccccc3O2)c2ccc3c(c2)OCO3)o1 (stereo unspecified) | inactive: 77%
CCc1ccc2[nH]c(=O)c(CN(CCO)C(=S)NCc3ccco3)cc2c1 | inactive: 88%
